Measurements from the RNAGym collection of RNA variant scans (doi:10.7554/elife.90254).
The source gives no read counts; variants with many changes may rest on few reads.

B1: LINE1-full (parent)
chain: UACGUAGGUGGUUUUCCCCUGAUAGUGCUAAGGGGGCCUGGAAGUUUGGACUGGGCAGAGCUCAACACAGCGUGGCAAAGUGGCUGUGGCUAGACUGCCUCUCUGGAUUCCUCGUCACUCAGCAGGGCAUCUCUGAGAGAAAUGCC

Variants of: B1
Test: self-cleavage, relative activity (ratio to wild type); higher = more cleavage; in vitro, sequencing; the parent is a self-cleaving ribozyme
Variant A42G U85G U91A has a self-cleavage of 0.16. Work on A42G U87A U91C A124U yielded a self-cleavage of 0.24. A42G U87C U134C showed a self-cleavage of 0. A42G U96A A140G showed a self-cleavage of 0.09. In the case of A42G U96C G114A, the self-cleavage is reported as 0.11. For A42G U100C A129G, the self-cleavage was 1. Variant A42G U100C U119C has a self-cleavage of 0. Variant A42G U104A U109C A142G has a self-cleavage of 1.46. A42G U108C A138C gave a self-cleavage of 1.67. With A42G U108C U143C the self-cleavage was 2.3. A42G U115C G144A gave a self-cleavage of 2.36. In the case of A42G U130C U132C, the self-cleavage is reported as 1.38. Work on A42G U132C A141G yielded a self-cleavage of 0. With A42U A43C A67U A69G U119C A121U the self-cleavage was 0. With A42U A43G U52A U73C U85C U104A A140G the self-cleavage was 0.54. Work on A42U A43G U100C A117G yielded a self-cleavage of 2.63. For A42U A57U A77U, the self-cleavage was 0.13. For A42U A57U U100C U143A, the self-cleavage was 0.1. A42U A59G U112C gave a self-cleavage of 0.12. A42U A64U A92G A94U U100C A141G gave a self-cleavage of 0.12. In the case of A42U A67C A107U A121G A124G A136G A140G, the self-cleavage is reported as 0. Variant A42U A67G G114A U115C has a self-cleavage of 0.34. Work on A42U A67G U91C A121G yielded a self-cleavage of 0. For A42U A77C A107U U132C, the self-cleavage was 0.17. Variant A42U A77U U85A has a self-cleavage of 0.06. Variant A42U A92G A124G has a self-cleavage of 0.1. A42U G54A G72A A94G showed a self-cleavage of 0.07. Work on A42U G55A U115C yielded a self-cleavage of 0.1. A42U G137U A138U gave a self-cleavage of 0.96. Variant A42U U45A A64U A94U A142G has a self-cleavage of 0.19. For A42U U46A A79G A121G A141G, the self-cleavage was 0.92. In the case of A42U U46C A69G, the self-cleavage is reported as 0.42. Work on A42U U46C U115C yielded a self-cleavage of 2.07. Variant A42U U47A A50G A59G U96C has a self-cleavage of 0.19. For A42U U47A A64G A136U, the self-cleavage was 0.15. Variant A42U U47C C84U has a self-cleavage of 0.22. With A42U U52A G82A the self-cleavage was 1.58. In the case of A42U U62C A124U, the self-cleavage is reported as 0.05. For A42U U73C A107G A124G A140G, the self-cleavage was 0. In the case of A42U U81A A138G, the self-cleavage is reported as 0.46. A42U U81A U96C U102C U115C U143A showed a self-cleavage of 0. Variant A42U U81C U85A has a self-cleavage of 0.07. A42U U87A A94U showed a self-cleavage of 0.09. A42U U87C U108G showed a self-cleavage of 0. For A42U U91C U112C, the self-cleavage was 0.36. For A42U U104C A142G, the self-cleavage was 1.34. Variant A42U U109A A117U has a self-cleavage of 1.74. In the case of A42U U115A C145U, the self-cleavage is reported as 1.05. In the case of A43C A79G U130C, the self-cleavage is reported as 1.07. In the case of A43C A140G A141G U143G, the self-cleavage is reported as 1.2. In the case of A43C C51U U96A, the self-cleavage is reported as 0.05. Variant A43C U85C G127C has a self-cleavage of 0.56. A43C U96A U104C U112C U132C A142G showed a self-cleavage of 0. In the case of A43C U119A A138G, the self-cleavage is reported as 1.97. A43G A50G A59G A77U A141G gave a self-cleavage of 0.11. Variant A43G A50G U96A U108C G126A has a self-cleavage of 0. With A43G A50U A64U C66U A69C C76U U112C U130C A138U the self-cleavage was 0.02. In the case of A43G A57G A59G, the self-cleavage is reported as 0.11. With A43G A57G A94G the self-cleavage was 0.17. A43G A57G G89U showed a self-cleavage of 0.06. For A43G A57G U104A A117U U132A A140U, the self-cleavage was 0.19. For A43G A57U C71G A136U, the self-cleavage was 0.09. A43G A57U C76A showed a self-cleavage of 0.08. A43G A59G A92U C103A showed a self-cleavage of 0.08. Variant A43G A59G G86A U102C has a self-cleavage of 0.1. In the case of A43G A59U A77G A141G, the self-cleavage is reported as 1.21. A43G A64G A121G U132C showed a self-cleavage of 0. For A43G A64U A94G, the self-cleavage was 0.13. With A43G A64U U108C A124G the self-cleavage was 0.58. Variant A43G A65G C66U A140G has a self-cleavage of 0.06. Variant A43G A65G G74A A142G has a self-cleavage of 0.1. With A43G A65G U96A the self-cleavage was 0.08. For A43G A67G U115C, the self-cleavage was 1.84. In the case of A43G A67U A121G, the self-cleavage is reported as 0.28. Variant A43G A67U C128U has a self-cleavage of 0.12. A43G A67U U115C showed a self-cleavage of 0.22. For A43G A69G A77G G86A, the self-cleavage was 0.03. For A43G A69G A107G, the self-cleavage was 0.71. A43G A69G U81A U134C showed a self-cleavage of 0.19. A43G A69G U100C U143C G144A gave a self-cleavage of 0. With A43G A77C A142C the self-cleavage was 0.61. Variant A43G A77G U112C U130C has a self-cleavage of 2.12. Work on A43G A77U A94G A140G yielded a self-cleavage of 0.21. Variant A43G A77U U100C A138G has a self-cleavage of 2.12. With A43G A78G A124G the self-cleavage was 0.43. Work on A43G A78U G105A U112C C146A yielded a self-cleavage of 2.52. Work on A43G A94G C145U yielded a self-cleavage of 0.37. With A43G A94G U109A A136U the self-cleavage was 0.15. With A43G A117G A124G the self-cleavage was 0.46. In the case of A43G A124U G144A, the self-cleavage is reported as 1.02. Variant A43G C66U U100C A136G has a self-cleavage of 0.05. A43G C71U U102A U132C gave a self-cleavage of 0.34. With A43G C131A A140G the self-cleavage was 1.89. Variant A43G G53A A78G has a self-cleavage of 0.56. Work on A43G G54A U96C yielded a self-cleavage of 0.06. A43G G54A U100A showed a self-cleavage of 0.07. For A43G G60U A142G, the self-cleavage was 0.03. A43G G70C A77U A94C A124U showed a self-cleavage of 0.15. A43G G72A U132C showed a self-cleavage of 1.3. A43G G75A U85A U100C U115C C116A gave a self-cleavage of 0. Work on A43G G75U U87C U130A A140G yielded a self-cleavage of 0. For A43G G80U U81A A129U, the self-cleavage was 1.95. In the case of A43G G83A U87C U102A C113U, the self-cleavage is reported as 0.05. With A43G G86A U87C the self-cleavage was 0.05. A43G G89U A138U showed a self-cleavage of 0.05. For A43G G105A U108C U115C A140G, the self-cleavage was 1.23. For A43G U45C A57U U62C A65U A124G C128U G139A U143C, the self-cleavage was 0. In the case of A43G U45C A69G U87A A138G, the self-cleavage is reported as 0.2. With A43G U45C A79G A124U A142G the self-cleavage was 0. Work on A43G U45C C66U U112C A141G yielded a self-cleavage of 0.04. Variant A43G U45C C113A has a self-cleavage of 1.07. For A43G U45C U47C, the self-cleavage was 0. Work on A43G U45C U52G yielded a self-cleavage of 0.92. With A43G U46A A69G U96C the self-cleavage was 1.31. Work on A43G U46A C98A U130C yielded a self-cleavage of 0.18. A43G U46C A77G A107U C128U showed a self-cleavage of 1.71. A43G U46C C68U U102C A136G showed a self-cleavage of 0.15. A43G U47A U73G A78G A117G showed a self-cleavage of 0.31. Work on A43G U52A A57G yielded a self-cleavage of 0.94. In the case of A43G U52A A67G U134C, the self-cleavage is reported as 0. For A43G U52A A121C, the self-cleavage was 1. For A43G U52C A136U A141G, the self-cleavage was 2.04. With A43G U52C A140G the self-cleavage was 0. With A43G U62A G74U the self-cleavage was 0.04. A43G U62C A64U showed a self-cleavage of 0.15. Work on A43G U62C A77U yielded a self-cleavage of 0.1. A43G U62C A107U gave a self-cleavage of 0.03. A43G U62C A129G gave a self-cleavage of 0. In the case of A43G U62C G127U, the self-cleavage is reported as 0.11. A43G U62G G74A U100C gave a self-cleavage of 0. A43G U73A G80A A92G showed a self-cleavage of 0.08. Variant A43G U73A U112C A117G U134C has a self-cleavage of 1.41. A43G U73C A124U showed a self-cleavage of 1.84. A43G U73C A140G gave a self-cleavage of 0. With A43G U73C U104A U108A A141G the self-cleavage was 0.71. With A43G U73G A79G the self-cleavage was 1.84. A43G U81A A142G showed a self-cleavage of 1.94. A43G U81A U112C A141G showed a self-cleavage of 2.16. A43G U85A A138G A142G showed a self-cleavage of 0.07. Variant A43G U85A U134C A141G has a self-cleavage of 0.1. A43G U85C A117U gave a self-cleavage of 0.11. For A43G U85C C90U U115C A121U U130C A140G, the self-cleavage was 0. Variant A43G U85C U143A has a self-cleavage of 0.14. A43G U87A A107U showed a self-cleavage of 0.61. In the case of A43G U87A U108C G114A, the self-cleavage is reported as 0.17. For A43G U91C U119C A140U, the self-cleavage was 0. Variant A43G U91C U130C has a self-cleavage of 0.56. In the case of A43G U96A G127C, the self-cleavage is reported as 0.07. A43G U96A U112C G122A U130A showed a self-cleavage of 0.04. A43G U96C G106U showed a self-cleavage of 0.03. Variant A43G U102C A129G has a self-cleavage of 2.19. With A43G U102C U143C the self-cleavage was 1.08. Variant A43G U104A A124U G125A A141U has a self-cleavage of 0.49. A43G U104A A136G gave a self-cleavage of 2.55. A43G U108C U143C showed a self-cleavage of 0.81. Work on A43G U112A A138G yielded a self-cleavage of 1.66. A43G U112C A136U showed a self-cleavage of 0.79. For A43G U112C C113A, the self-cleavage was 0.42. A43G U115C A124G U143C gave a self-cleavage of 0. Work on A43G U119C A141G yielded a self-cleavage of 1.61. Variant A43G U130C U143C has a self-cleavage of 1.36. With A43G U132C U134A the self-cleavage was 0.65. A43U A57G A78G showed a self-cleavage of 0.57. Work on A43U A59G U62A yielded a self-cleavage of 0. A43U A67G A69U U130C showed a self-cleavage of 0.23. A43U A78G A124U A136U showed a self-cleavage of 1.58. A43U A78G U96C gave a self-cleavage of 0.
